Experimental data reported in US12258540B2, “Environmentally compatible detergents for inactivation of lipid-enveloped viruses” (TAKEDA PHARMACEUTICAL COMPANY LIMITED, priority 2017, dated 2025).

Tests used:
[1] = tested on: bovine viral diarrhea virus (BVDV)
[2] = tested on: bovine viral diarrhea virus (BVDV); conditions: single detergent 0.1%±0.01%, IVIG-containing liquid, 17° C.±1° C., within 10 minutes

Substance: 4-(1,1,3,3-tetramethylbutyl)phenol, ethoxylated [Triton X-100, reference compound]
- virus reduction factor (RF), BVDV [1]: around 5

Substance: 4-tert-octylbenzyl alcohol polyethoxylate
- virus reduction factor (RF), BVDV ([1]; single detergent 0.1%±0.01%, pdFVIII-containing liquid, 23° C.±1° C., within 5 minutes): around 5
- virus reduction factor (RF), BVDV [2]: around 5

Where two headings read alike, the source gives them in different places.
